# Measurements as given in the supplement of paper PMC7826260.
# This is one part of the list. Cleavage of a single-stranded DNA pool by Rep nickase domains was read by sequencing (1 h at 37 °C, 3 µM enzyme); the outer parts of the 90-letter strands are left off. Values are log2 of uncut reads against the no-enzyme pool; strong cutting gives strongly negative numbers. There is no active / inactive call. Counts are relative to all reads, so uncut sequences can rise above 0 when many others are cut.
# Columns and labels:
# Assay in all cases: uncleaved DNA left, log2 of reads against the no-enzyme library (log2 ratio); higher = less cleavage (more negative = more Rep cleavage of the k-mer); sequences stand for … in CTCGTCCG…ACCGGAGA
# [1] = tested on: T1, Rep nickase domain of Muscovy duck circovirus
# T1 sequence (residues 1-111 of Rep, tag left off): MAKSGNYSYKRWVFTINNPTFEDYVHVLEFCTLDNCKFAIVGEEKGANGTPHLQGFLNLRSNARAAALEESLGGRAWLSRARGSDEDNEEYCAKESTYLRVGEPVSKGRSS
# Method: (§1)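 A pool of 90-nt single-stranded DNAs with seven random bases just before the constant AC of the nick site (name = the seven bases) was cut by 3 µM recombinant His6-SUMO-tagged Rep nickase domain (300 nM DNA, 50 mM HEPES pH 8.0, 50 mM NaCl, 1 mM MnCl2, 1 h, 37 °C, three replicates). Uncut DNA was amplified and sequenced.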
# [2] = tested on: T2, Rep nickase domain of banana bunchy top virus
# T2 sequence (residues 1-94 of Rep, tag left off): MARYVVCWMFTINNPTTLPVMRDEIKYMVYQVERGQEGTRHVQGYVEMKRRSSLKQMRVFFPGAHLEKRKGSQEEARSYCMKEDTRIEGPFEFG
# Method: as §1
# [3] = tested on: T3, Rep nickase domain of cabbage leaf curl virus
# T3 sequence (residues 1-116 of Rep, tag left off): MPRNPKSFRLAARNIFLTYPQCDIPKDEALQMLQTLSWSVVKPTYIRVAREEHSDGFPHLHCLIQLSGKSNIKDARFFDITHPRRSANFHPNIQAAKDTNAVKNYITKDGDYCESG
# Method: as §1
# [4] = tested on: T4, Rep nickase domain of chickpea chlorotic dwarf virus
# T4 sequence (residues 1-124 of Rep, tag left off): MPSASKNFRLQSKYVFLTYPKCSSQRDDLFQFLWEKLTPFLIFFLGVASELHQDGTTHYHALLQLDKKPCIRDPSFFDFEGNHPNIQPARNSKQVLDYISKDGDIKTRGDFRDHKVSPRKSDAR
# Method: as §1
# [5] = tested on: T5, Rep nickase domain of faba bean necrotic yellows virus
# T5 sequence (residues 1-98 of Rep, tag left off): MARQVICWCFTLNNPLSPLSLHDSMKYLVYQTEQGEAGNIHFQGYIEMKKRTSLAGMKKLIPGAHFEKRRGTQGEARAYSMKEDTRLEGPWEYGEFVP
# Method: as §1
# [6] = tested on: T6, Rep nickase domain of maize striate mosaic virus
# T6 sequence (residues 1-117 of Rep, tag left off): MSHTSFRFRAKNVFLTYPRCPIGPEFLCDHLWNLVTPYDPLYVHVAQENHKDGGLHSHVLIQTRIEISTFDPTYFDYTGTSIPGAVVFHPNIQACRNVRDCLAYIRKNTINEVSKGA
# Method: as §1
# [7] = tested on: T7, Rep nickase domain of porcine circovirus 2
# T7 sequence (residues 2-116 of Rep, tag left off): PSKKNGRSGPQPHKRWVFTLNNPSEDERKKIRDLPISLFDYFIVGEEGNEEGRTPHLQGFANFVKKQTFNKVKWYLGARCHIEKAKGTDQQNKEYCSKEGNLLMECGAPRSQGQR
# Method: as §1
# [8] = tested on: T8, Rep nickase domain of tomato golden mosaic virus
# T8 sequence (residues 1-124 of Rep, tag left off): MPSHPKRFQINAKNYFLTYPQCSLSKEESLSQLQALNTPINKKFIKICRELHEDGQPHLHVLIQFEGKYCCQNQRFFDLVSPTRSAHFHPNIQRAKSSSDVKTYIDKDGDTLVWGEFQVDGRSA
# Method: as §1
# [9] = tested on: T9, Rep nickase domain of tomato yellow leaf curl virus
# T9 sequence (residues 1-136 of Rep, tag left off): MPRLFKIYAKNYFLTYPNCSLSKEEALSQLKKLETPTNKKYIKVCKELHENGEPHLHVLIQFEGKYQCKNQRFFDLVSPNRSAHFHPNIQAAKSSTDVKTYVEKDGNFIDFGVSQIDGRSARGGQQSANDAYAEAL
# Method: as §1
# [10] = tested on: T10, Rep nickase domain of wheat dwarf virus
# T10 sequence (residues 1-137 of Rep, tag left off): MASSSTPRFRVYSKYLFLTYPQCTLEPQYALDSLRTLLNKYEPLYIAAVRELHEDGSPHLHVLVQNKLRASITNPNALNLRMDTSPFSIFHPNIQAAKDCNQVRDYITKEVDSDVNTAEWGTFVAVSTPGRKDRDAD
# Method: as §1
Sequence,uncleaved DNA left (log2) [1],uncleaved DNA left (log2) [2],uncleaved DNA left (log2) [3],uncleaved DNA left (log2) [4],uncleaved DNA left (log2) [5],uncleaved DNA left (log2) [6],uncleaved DNA left (log2) [7],uncleaved DNA left (log2) [8],uncleaved DNA left (log2) [9],uncleaved DNA left (log2) [10]
GCACGAG,-0.0406,0.0909,0.32,1.03,0.0243,-0.00744,0.361,0.151,0.161,0.149
TTGTTGC,0.101,0.0137,-0.669,-0.231,-0.00171,-0.849,0.0691,-0.0764,0.0146,-0.163
ATGTTGG,0.0541,-0.0123,-0.371,-0.268,0.0678,-0.969,0.244,0.102,0.119,-0.0434
CGTAACA,0.0143,-0.00374,-0.393,-1.56,-0.0693,-0.416,-0.113,-0.181,-0.137,0.000898
CAGCACA,0.0731,0.0676,0.0106,-1.88,-0.0896,-0.312,-0.605,0.0381,0.0952,0.0143
ACGGATG,0.155,0.017,-0.246,0.171,0.0576,-0.345,0.174,0.13,-0.101,-0.0984
TCTGTTG,-0.0677,-0.221,-0.375,-0.709,0.0687,-1.13,-0.0137,0.0151,0.00489,-0.181
TCTTCAC,-0.0713,-0.0813,-0.00926,-0.409,-0.0121,-0.598,-0.0788,-0.0709,0.00016,-0.141
GGTACTT,-0.13,-0.00521,0.758,1.77,-0.0587,2.09,0.142,-0.123,-0.0475,-0.0218
CTGCTGG,0.148,-0.0344,-0.172,0.043,0.149,-0.58,0.133,0.0263,0.0373,-0.0766
TATTGCG,-0.266,-0.14,0.457,1.09,-0.0355,1.97,0.0314,-0.193,-0.348,-0.0683
CCTATGG,-0.0474,-0.0546,-0.0988,0.0896,-0.0854,-0.656,0.0279,0.0595,-0.0313,0.0138
TCTTCGA,-0.0286,-0.134,-0.382,-0.743,-0.0988,-1.03,-0.0138,-0.154,-0.0615,-0.083
TTGAGTA,0.159,0.0141,-0.136,-0.818,0.0469,-0.921,-0.499,0.1,0.0243,-0.00143
ACCCTGT,0.0981,-0.0609,-0.266,-0.625,-0.00129,-0.638,-0.0647,0.185,-0.0312,-0.0401
TCTACCT,0.0179,0.214,-0.0179,-2.58,0.0604,-0.116,-0.965,0.0571,0.0615,0.014

Sequence,uncleaved DNA left (log2) [1],uncleaved DNA left (log2) [2],uncleaved DNA left (log2) [3],uncleaved DNA left (log2) [4],uncleaved DNA left (log2) [5],uncleaved DNA left (log2) [6],uncleaved DNA left (log2) [7],uncleaved DNA left (log2) [8],uncleaved DNA left (log2) [9],uncleaved DNA left (log2) [10]
CGTGCGC,0.0259,-0.16,-0.729,-0.551,-0.0152,-0.769,0.0123,-0.196,-0.0308,-0.184
TCTTATT,-3.37,-2.93,-1.08,-2.84,-0.225,-0.7,-3.98,-0.307,-0.104,-1.23
GGATCCT,0.00184,0.107,0.494,0.958,-0.0349,1.8,-0.209,-0.0495,-0.00275,0.0436
ACAGGCA,0.0721,0.0728,-0.418,-0.625,0.0346,-0.885,0.164,0.0297,0.143,0.0215
TAGTTCC,-0.0412,-0.0293,0.0987,-0.325,-0.225,0.36,-3.17,-0.154,0.0757,-0.0164
TCGTTTT,-2.57,-0.408,-0.75,-2.02,-0.694,-0.306,-3.74,-0.109,-0.0572,-0.236
ACTAAAT,0.0306,0.0383,-0.097,-0.611,-0.0579,-0.604,-0.619,0.149,-0.0578,0.181
AATTGTG,0.023,-0.0638,-0.506,1.1,0.125,0.133,0.139,0.0578,0.208,-0.0731
CATCTCG,-0.0028,-0.0875,-0.733,-0.0604,0.124,-0.866,0.158,-0.0466,0.167,0.107
GGACAGC,0.00899,0.0872,0.813,1.92,0.0081,2.17,0.21,-0.0108,-0.0456,0.11
TCATAAC,-0.051,-0.0436,-0.391,-1.61,-0.0482,-0.76,-0.0189,0.0337,-0.0213,-0.129
ATGAGGT,-0.0481,-0.0902,0.276,1,-0.0601,1.23,0.0615,-0.0451,-0.143,-0.11
GGCGCTG,-0.0157,-0.0394,0.0481,0.595,0.0267,1.76,0.0902,0.019,-0.106,0.00908
CTCATTT,-0.035,-0.134,-0.358,-2.51,-0.0897,-1.09,-0.299,-0.0505,-0.16,-0.15
CGCGGTT,0.204,-0.0107,-0.0253,-0.591,0.096,-0.131,-0.0352,0.18,0.0912,-0.0323
